Source: a compilation of properties of binary mixtures (doi:10.1021/acs.jced.0c00495)
The densities may have been worked out from excess volumes.

Assay: xn = mol fraction of the nth substance listed
Details: 101.3 kPa

Nc1ccccc1 + CCCCCC[n+]1ccn(C)c1.F[B-](F)(F)F
x2 = 0
Details	mass density [kg/m3]
293.15 K	1021.7
298.15 K	1017.4
303.15 K	1013
308.15 K	1008.7

Nc1ccccc1 + CCCCCCCCn1cc[n+](C)c1.F[B-](F)(F)F
x2 = 0
Details	mass density [kg/m3]
293.15 K	1021.7
298.15 K	1017.4
303.15 K	1013
308.15 K	1008.7
318.15 K	1000
323.15 K	995.6

Nc1ccccc1 + CCCC[n+]1ccn(C)c1.F[B-](F)(F)F
mass density [kg/m3]
Details	x2 = 0	x2 = 0.0925	x2 = 0.2022	x2 = 0.2995	x2 = 0.4002	x2 = 0.4982	x2 = 0.5953	x2 = 0.6935	x2 = 0.7904	x2 = 0.9191
293.15 K	–	1059.3	–	1118.1	1137.2	–	–	–	1184.9	1196.4
298.15 K	1017.4	–	1090.6	1114.8	1134	–	1161.3	1172.5	1182.1	1193.8
303.15 K	–	1051.9	1087.1	1111.2	1130.5	1145.5	1158	–	1178.8	1190.5
308.15 K	1008.7	1048.1	1083.3	–	1126.6	–	1154.2	1165.4	1175.1	1186.8
313.15 K	–	1044.1	1079.4	1103.3	–	1137.7	–	–	–	1182.8
318.15 K	1000	1040.3	1075.7	1099.9	1119	–	1147	–	1168.1	1179.6
323.15 K	995.6	1036.7	1072.2	–	–	1131.3	1143.6	1154.8	1164.8	1176.5

CCCCCC[n+]1ccn(C)c1.F[B-](F)(F)F + Nc1ccccc1
mass density [kg/m3]
Details	x1 = 0.0989	x1 = 0.1792	x1 = 0.2896	x1 = 0.3924	x1 = 0.5062	x1 = 0.6042	x1 = 0.6986	x1 = 0.7974	x1 = 0.8962
293.15 K	1054.9	–	1095.3	1108.1	1119	1126.6	–	–	1143.5
298.15 K	1051	1071.3	1091.6	1104.7	–	–	1129.4	1135.1	1140
303.15 K	–	1067.6	1088	1101.3	1112.5	1120.1	–	1131.8	1136.6
308.15 K	1043.2	1063.9	1084	1097.6	1108.8	1116.5	1122.5	1128.1	1133
313.15 K	–	1060.2	1080.6	1094.3	1105.6	1113.6	1119.6	1125.2	1130
318.15 K	1035.7	1056.6	1077.1	1090.8	1102.3	–	–	1122.2	1127
323.15 K	1031.7	–	1073	–	1098.3	1106.5	1112.6	1118.3	1122.9

CCCCCCCCn1cc[n+](C)c1.F[B-](F)(F)F + Nc1ccccc1
mass density [kg/m3]
Details	x1 = 0.0996	x1 = 0.1904	x1 = 0.2853	x1 = 0.3789	x1 = 0.4955	x1 = 0.5783	x1 = 0.6966	x1 = 0.7938	x1 = 0.8958
293.15 K	1047.4	1064.5	1077	1085.1	1091.6	1095.2	1099.5	1102.7	–
298.15 K	–	–	1073.7	1081.7	1088.3	1092	1096.2	–	1102.2
303.15 K	–	–	1070.2	1078.4	1085	1088.7	1092.9	1096	–
308.15 K	1036.4	–	1066.7	1075	1081.8	–	1089.7	1092.7	1095.6
313.15 K	–	1050.6	1063.2	–	1078.6	1082.3	1086.5	1089.5	1092.2
318.15 K	1028.6	1046.7	1059.7	–	1075.1	1078.8	1082.9	1086	1088.8
323.15 K	–	–	1056	1064.6	1071.5	1075.3	1079.4	–	1085.2
